Laboratory results: PubChem BioAssay AID686979 (National Center for Advancing Translational Sciences (NCATS), 2013)
In all, about 420,000 compounds went through this assay and about 50,000 (12%) were called active. Inconclusive results, whose numbers are uncertain, are shown with a selection of clear calls. The call rests on the fitted dose curve; in most records, active means well fitted inhibition curve with a large enough effect; inconclusive means small, poorly fitted or top-dose-only effect; inactive means flat fitted curve, though single readings scatter. No potency is given beside an inconclusive call; the fits are too rough.

Experiment: qHTS for Inhibitors of human tyrosyl-DNA phosphodiesterase 1 (TDP1): qHTS in cells in presence of CPT; further: nearly all actives have a fitted effect of over 55% in size
Settings: chicken DT40 Tdp1-/-;hTDP1 cells + 20 nM CPT, ATP luminescence, 48 h; activity change, negative = growth inhibition: at 46.2 µM (top of the series) unless noted
In short: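 Chicken DT40 Tdp1-/- cells complemented with human TDP1, 400 cells/well, exposed to compounds plus 20 nM camptothecin for at least 48 h at 37 C; viability read as ATP content by CellTiter-Glo luminescence.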
On the % scale 0 is the no-effect control and ±100 the full control effect; potency means the concentration at half of the fitted maximal effect; tags describe the fitted curve by direction and shape.

Question: Which Potency does the source give for `Cc1nc(C)c(C(=O)NCc2ccccc2Cl)o1` here?
Answer: Its Potency is inconclusive [inhibitor, single point].

Question: With `O=C(CN1CCCC1)Nc1ccc(OCc2ccccc2)cc1` as the molecule, how does the “activity change, negative = growth inhibition” value read?
Answer: The value was inactive: -14.8%.

Question: Which Potency does the source give for `O=C1C=CC2C(c3ccc4c(c3)OCO4)CC1N2Cc1ccccc1` (stereo not drawn) here?
Answer: The Potency was active: 8.2 µM.

Question: For `O=C(NCc1ccccn1)c1cccc(NS(=O)(=O)c2cccc(Cl)c2)c1`, which Potency is on record?
Answer: Its Potency is inconclusive [inhibitor, single point].

Question: With `COc1cccc(C2CC(=O)Nc3cc4c(cc32)OCCO4)c1OC(C)C` (stereo not drawn) as the molecule, how does the Potency read?
Answer: Its Potency is inconclusive [inhibitor, single point].

Question: With `CC1CCCC(CC(N)=O)CC1` (stereo not drawn) as the molecule, how does the “activity change, negative = growth inhibition” value read?
Answer: The value was inactive: 13.8%.

Question: With `CC1CCCN(Cc2nc3c(c(=O)n(C)c(=O)n3C)n2CC(=O)c2ccccc2)C1` (stereo not drawn) as the molecule, how does the Potency read?
Answer: Its Potency is active: 23.1 µM.

Question: For `Cc1nc(C)c(C(=O)Nc2ccc(Oc3ccccc3)cc2)o1`, which Potency is on record?
Answer: The Potency was inconclusive [inhibitor, partial curve, poor fit].

Question: Which “activity change, negative = growth inhibition” value does the source give for `CCCn1c(SCC(=O)NCc2ccccc2Cl)n[nH]c1=O` here?
Answer: Its value is inactive: -7.02%.

Question: For `COC(=O)C(NC(=O)CCc1nnc2ccc(N3CCCCC3)nn12)C(C)C` (stereo not drawn), which “activity change, negative = growth inhibition” value is on record?
Answer: Its value is inactive: -15.6%.

Question: For `CCc1cc(=O)oc2c3c(cc(OCC(=O)NCc4ccco4)c12)OC(C)(C)CC3`, which Potency is on record?
Answer: Its Potency is inconclusive [inhibitor, single point].

Question: For `COc1ccc(NC(=O)c2cnn3c(C(F)(F)F)cc(-c4ccco4)nc23)cc1OC`, which Potency is on record?
Answer: Its Potency is inconclusive [inhibitor, full curve].

Question: With `CC(C)NC(=S)N/N=C/c1ccc(N2CCOCC2)cc1` as the molecule, how does the Potency read?
Answer: The Potency was inconclusive [inhibitor, single point].

Question: For `O=C(COc1ccccc1F)NCC(c1ccco1)N1CCCC1` (stereo not drawn), which “activity change, negative = growth inhibition” value is on record?
Answer: The value was inactive: 5.87%.

Question: Which Potency does the source give for `CC1CC(C)CN(c2ncnc3c2cnn3Cc2ccc(Cl)cc2)C1` (stereo not drawn) here?
Answer: The Potency was inconclusive [inhibitor, single point].

Question: For `CCC(=O)c1ccc(OCC(=O)OCC(=O)N2CCc3ccccc32)cc1`, which “activity change, negative = growth inhibition” value is on record?
Answer: The value was inactive: 13.6%.

Question: Which Potency does the source give for `O=C(N/N=C/c1ccco1)c1cc(-c2ccccc2)nc2ccccc12` here?
Answer: Its Potency is inconclusive [inhibitor, partial curve].

Question: Which Potency does the source give for `Cc1c(C(=O)N2CCN(c3ccc(C(F)(F)F)cn3)CC2)oc2ccccc12` here?
Answer: The Potency was active: 23.1 µM.

Question: With `N[C@@H](Cc1ccccc1)c1nnc(SC/C=C/c2ccccc2)o1` as the molecule, how does the “activity change, negative = growth inhibition” value read?
Answer: The value was inactive: -2.16%.

Question: For `Nc1nc(=O)n(C2OC(CO)C(O)C2O)cc1Cl` (stereo not drawn), which Potency is on record?
Answer: The Potency was inconclusive [inhibitor, single point].

Question: Which Potency does the source give for `CN1CCc2c(sc(N)c2C(=O)c2ccc(Cl)cc2)C1` here?
Answer: The Potency was inconclusive [inhibitor, single point].

Question: Which Potency does the source give for `COc1ccc(C(=O)NCC(c2cccnc2)N2CCN(c3ccccc3)CC2)cc1OC` (stereo not drawn) here?
Answer: Its Potency is inconclusive [inhibitor, single point].

Question: For `CCc1cc(=O)oc2c(CN3CCN(C)CC3)c(O)ccc12`, which “activity change, negative = growth inhibition” value is on record?
Answer: The value was inactive: 18%.

Question: With `COc1ccc(NC(=O)N2CC3(CCN(S(=O)(=O)c4ccccc4)CC3)C2)cc1` as the molecule, how does the Potency read?
Answer: The Potency was inconclusive [inhibitor, single point].

Question: With `CC(C)Oc1ccc(S(=O)(=O)N2CCOCC2)cc1NC(=O)C1CCCCC1` as the molecule, how does the “activity change, negative = growth inhibition” value read?
Answer: The value was inactive: -28.5%.

Question: For `CCOC(=O)C1CCCN(C(=O)c2ccc(CS(=O)(=O)c3ccc(C)cc3)o2)C1` (stereo not drawn), which “activity change, negative = growth inhibition” value is on record?
Answer: Its value is inactive: -7.82%.

Question: For `O=C(Nc1ccc2c(c1)CCC2)Nc1ccccc1Cl`, which Potency is on record?
Answer: The Potency was inconclusive [inhibitor, single point].

Question: With `Cc1ccccc1-c1nc(S(=O)(=O)c2ccccc2)c(NCCCN2CCOCC2)o1` as the molecule, how does the Potency read?
Answer: The Potency was inconclusive [inhibitor, single point].

Question: With `Cc1ccc(Nc2c(-c3ccccn3)nc3ccc(Br)cn23)cc1` as the molecule, how does the Potency read?
Answer: Its Potency is active: 9.2 µM.

Question: Which “activity change, negative = growth inhibition” value does the source give for `CCN(Cc1ccccc1)C(=O)Cn1c(=O)n(CC(=O)N2CCCCC2)c(=O)c2sccc21` here?
Answer: Its value is inactive: -4.21%.

Question: For `O=C1NC(NS(=O)(=O)c2ccccc2)(C(F)(F)F)C(=O)N1Cc1ccccc1` (stereo not drawn), which “activity change, negative = growth inhibition” value is on record?
Answer: The value was inactive: -4.87%.

Question: Which Potency does the source give for `CC(C)(C)[C@H]1C=C(C(=O)NC2CC2)O[C@@H](OCc2ccc(CO)cc2)C1` here?
Answer: Its Potency is inconclusive [inhibitor, single point].

Question: For `O=C(CCN=C1NS(=O)(=O)c2ccccc21)OCC(=O)c1ccccc1Cl`, which “activity change, negative = growth inhibition” value is on record?
Answer: Its value is inactive: -26.1%.

Question: Which “activity change, negative = growth inhibition” value does the source give for `C=CCn1c(Sc2nnc(C)s2)nc2c1c(=O)[nH]c(=O)n2C` here?
Answer: The value was inactive: -1.81%.

Question: With `COc1ccccc1NC(=O)c1c(-c2ccc(C)cc2)nnc2ccccc12` as the molecule, how does the Potency read?
Answer: The Potency was active: 18.4 µM.

Question: With `CCOC(=O)c1cc2c(ccn2C)n1CC(=O)Nc1ccc(F)cc1` as the molecule, how does the Potency read?
Answer: Its Potency is active: 23.1 µM.

Question: Which Potency does the source give for `CC(C)C1CC(=O)NC(SCC(=O)Nc2ccc(Br)cc2)=C1C#N` (stereo not drawn) here?
Answer: The Potency was inconclusive [inhibitor, single point].

Question: For `CC(C(=O)NC1CCCC1)n1c(-c2ccccn2)nc2ccccc21` (stereo not drawn), which Potency is on record?
Answer: The Potency was inconclusive [inhibitor, single point].

Question: Which Potency does the source give for `CC(CCc1ccccc1)NC(=O)CSc1n[nH]c(-c2ccccc2)n1` (stereo not drawn) here?
Answer: Its Potency is active: 14.6 µM.

Question: With `CN1C[C@@H]2C[C@@H](C3=Cc4cc(Cl)ccc4OC3)N3CCC[C@@]23C1=O` as the molecule, how does the “activity change, negative = growth inhibition” value read?
Answer: Its value is inactive: -7.93%.

Question: For `CCCCNC(=O)CCC(=O)NNc1nc2ccccc2c2nc(C)nn12`, which Potency is on record?
Answer: The Potency was “inactive”.

Question: With `Cc1ccc2ccc3cc(C(=O)N4CCN(c5ccccc5F)CC4)nc3c2[nH]1` as the molecule, how does the Potency read?
Answer: The Potency was inconclusive [inhibitor, single point].

Question: For `CCOc1ccc(NC(=O)CN(C)C(=O)/C=C/c2ccc(S(=O)(=O)N3CCCCCC3)cc2)cc1OCC`, which Potency is on record?
Answer: The Potency was inconclusive [inhibitor, single point].

Question: Which “activity change, negative = growth inhibition” value does the source give for `N[C@@H](Cc1ccccc1)C(=O)N1CCC(C(=O)NCC(=O)Nc2ccc(F)cc2)CC1` here?
Answer: The value was inactive: 0.464%.

Question: Which Potency does the source give for `Cc1nn(C(C)C(=O)NCc2ccc(OC(C)C)cc2)c(=O)c2c1sc1ccccc12` (stereo not drawn) here?
Answer: The Potency was inconclusive [inhibitor, single point].

Question: With `Cc1cc(NC(=O)c2ccccc2)n(-c2ccccc2)n1` as the molecule, how does the Potency read?
Answer: The Potency was inconclusive [inhibitor, partial curve].

Question: Which “activity change, negative = growth inhibition” value does the source give for `COc1ccc(N2CCN(C(=O)Nc3cn(CC(C)C)c(=O)c4ccccc34)CC2)cc1` here?
Answer: The value was inactive: -24.3%.

Question: For `O=C(NCC1CC1)c1cccc2c1C(=O)c1ccc(N3CCCC3)cc1S2(=O)=O`, which Potency is on record?
Answer: Its Potency is inconclusive [inhibitor, single point].
